Test results: patent US8188074B2 (priority 2001, dated 2012)

Tested on: subcutaneous CaNT tumours
Assay: PDT induced tumour necrosis in mice bearing subcutaneous CaNT tumours
Settings: 60 J/cm2, 72 h after illumination
[1] = iv 16.7 μmol/kg, drug-light interval 0 h (optimal for the compound)
[2] = iv 8.35 μmol/kg, drug-light interval 0 h (optimal for the compound)
[3] = iv 1.67 μmol/kg, drug-light interval 1 h (optimal for the compound)
[4] = iv 16.7 μmol/kg, drug-light interval 1 h (optimal for the compound)

Compound | % Tumour necrosis [1] [%] | Antitumour activity [1] | further results
CCCCCCCCN(C)c1ccc2nc3ccc(N(C)CCCCCCCC)cc3[s+]c2c1.[Br-] [Compound 17] | 61 ± 11 | Medium (Medium 40-69% tumour necrosis) | –
CCCN(CCC)c1ccc2nc3ccc(N(C)C)cc3[s+]c2c1.[I-] [Compound 9, 3-(N,N-dimethylamino)-7-(N,N-dipropylamino)-phenothiazin-5-ium iodide] | 34 ± 2 | Low (Low 11-39% tumour necrosis) | –
CCCCCN(CCCCC)c1ccc2nc3ccc(N4CCCC4C)cc3[s+]c2c1 (stereo not shown) [Compound 21, 3-(2-methylpyrrolidino)-7-(N,N-di-n-pentylamino)-phenothiazin-5-ium] | – | – | % Tumour necrosis [2]: 90 ± 4%; Antitumour activity [2]: High (High 70-100% tumour necrosis)
CCCCCN(CCCCC)c1ccc2nc3ccc(N(CCC)CCC)cc3[s+]c2c1.[I-] [Compound 12, 3-(N,N-dipentylamino)-7-(N,N-dipropylamino)-phenothiazin-5-ium iodide] | – | – | % Tumour necrosis [2]: 38 ± 14%; Antitumour activity [2]: Low (Low 11-39% tumour necrosis)
3,7-(N,N-tetra-iso-butylamino)-phenothiazin-5-ium [Compound 7] | 78 ± 3 | High (High 70-100% tumour necrosis) | –
CCCCCCN(CCCCCC)c1ccc2nc3ccc(N(CCC)CCC)cc3[s+]c2c1.[I-] [Compound 13, 3-(N,N-dihexylamino)-7-(N,N-dipropylamino)-phenothiazin-5-ium iodide] | – | – | % Tumour necrosis [2]: 85 ± 3%; Antitumour activity [2]: High (High 70-100% tumour necrosis)
[I-].c1cc2nc3ccc(N4CCOCC4)cc3[s+]c2cc1N1CCOCC1 [Compound 22] | 17 ± 6 | Low (Low 11-39% tumour necrosis) | –
CCCN(CCC)c1ccc2nc3ccc(N(CC)CC)cc3[s+]c2c1.[I-] [Compound 10, 3-(N,N-diethylamino)-7-(N,N-dipropylamino)-phenothiazin-5-ium iodide] | 45 ± 15 | Medium (Medium 40-69% tumour necrosis) | –
3,7-(tetra-iso-pentylamino)-phenothiazin-5-ium [Compound 8] | – | – | % Tumour necrosis [2]: 74 ± 12%; Antitumour activity [2]: High (High 70-100% tumour necrosis)
3,7-(tetra-n-pentylamino)-phenothiazin-5-ium [Compound 3] | – | – | % Tumour necrosis [3]: 88 ± 6%; Antitumour activity [3]: High (High 70-100% tumour necrosis)
3,7-(tetra-n-propylamino)-phenothiazin-5-ium [Compound 1] | 93 ± 3 | High (High 70-100% tumour necrosis) | –
CCCCCCN(CCCCCC)c1ccc2nc3ccc(N(CCCCCC)CCCCCC)cc3[s+]c2c1.[Br-] [Compound 4] | – | – | % Tumour necrosis [2]: 47 ± 12%; Antitumour activity [2]: Medium (Medium 40-69% tumour necrosis)
CCCCCN(CCCCC)c1ccc2nc3ccc(N4CCCCC4CC)cc3[s+]c2c1 (stereo not shown) [Compound 20, 3-(2-ethylpiperidino)-7-(N,N-di-n-pentylamino)-phenothiazin-5-ium] | 86 ± 2 | High (High 70-100% tumour necrosis) | –
CCCN(CCC)c1ccc2nc3ccc(N4CCOCC4)cc3[s+]c2c1.[I-] [Compound 23] | 14 ± 7 | Low (Low 11-39% tumour necrosis) | –
[I-].c1cc2nc3ccc(N4CCCCC4)cc3[s+]c2cc1N1CCCCC1 [Compound 19] | 36 ± 10 | Low (Low 11-39% tumour necrosis) | –
CCCCCCCN(CCCCCCC)c1ccc2nc3ccc(N(CC)CC)cc3[s+]c2c1.[I-] [Compound 16] | – | – | % Tumour necrosis [4]: 25 ± 13%; Antitumour activity [4]: Low (Low 11-39% tumour necrosis)
CCN(c1ccc2nc3ccc(N(CC)C4CCCCC4)cc3[s+]c2c1)C1CCCCC1 [Compound 18, 3-((N-ethyl-N-cyclohexyl)amino)-7((N-ethyl)-N-cyclohexyl)amino-phenothiazin-5-ium] | 49 ± 14 | Medium (Medium 40-69% tumour necrosis) | –
CCCN(CCC)c1ccc2nc3ccc(N(CCO)CCO)cc3[s+]c2c1.[I-] [Compound 26] | 17 ± 10 | Low (Low 11-39% tumour necrosis) | –
CCN(CC)c1ccc2nc3ccc(N(CC)CC)cc3[s+]c2c1.[Cl-] [Compound 6, ethylene blue, reference compound] | – | – | % Tumour necrosis [4]: 2 ± 2%; Antitumour activity [4]: None (None 0-10% tumour necrosis)
CCCCN(CCCC)c1ccc2nc3ccc(N4CCOCC4)cc3[s+]c2c1.[I-] [Compound 24] | – | – | % Tumour necrosis [4]: 10 ± 7%; Antitumour activity [4]: None (None 0-10% tumour necrosis)
3-(N,N-diethanolamino)-7-(N,N-dipentylamino)-phenothiazin-5-ium iodide [Compound 28] | – | – | % Tumour necrosis [2]: 75 ± 4%; Antitumour activity [2]: High (High 70-100% tumour necrosis)
CCCCN(CCCC)c1ccc2nc3ccc(N(CCC)CCC)cc3[s+]c2c1.[I-] [Compound 11, 3-(N,N-dibutylamino)-7-(N,N-dipropylamino)-phenothiazin-5-ium iodide] | 98 ± 2 | High (High 70-100% tumour necrosis) | –
[I-].c1ccc(CN(Cc2ccccc2)c2ccc3nc4ccc(N(Cc5ccccc5)Cc5ccccc5)cc4[s+]c3c2)cc1 [Compound 29] | – | – | % Tumour necrosis [4]: 40 ± 17%; Antitumour activity [4]: Medium (Medium 40-69% tumour necrosis)
CCCCCN(CCCCC)c1ccc2nc3ccc(N(CCCC)CCCC)cc3[s+]c2c1 [Compound 14, 3-(N,N-di-n-butylamino)-7-(N,N-di-n-pentylamino)-phenothiazin-5-ium] | – | – | % Tumour necrosis [4]: 60 ± 13%; Antitumour activity [4]: Medium (Medium 40-69% tumour necrosis)
CCCCCN(CCCCC)c1ccc2nc3ccc(N4CCOCC4)cc3[s+]c2c1.[I-] [Compound 25] | – | – | % Tumour necrosis [4]: 16 ± 5%; Antitumour activity [4]: Low (Low 11-39% tumour necrosis)
CCCCN(CCCC)c1ccc2nc3ccc(N(CCC(C)C)CCC(C)C)cc3[s+]c2c1 [Compound 15, 3-(N,N-di-n-butylamino)-7-(N,N-di-iso-pentylamino)-phenothiazin-5-ium] | 95 ± 3 | High (High 70-100% tumour necrosis) | –
